# Experimental data: the antibiotic and cytotoxicity screens of Wong et al. (2023)
# The other results are listed elsewhere or left out.
# Legend:
# [1] = system: HSkMC (human skeletal muscle cells); test: cytotoxicity call (relative viability < 0.9); conditions: 10 µM
# [2] = system: HepG2; test: cytotoxicity call (relative viability < 0.9); conditions: 10 µM
# [3] = system: S. aureus RN4220; test: growth inhibition call (relative growth <= 0.2); conditions: 50 µM
SMILES,cytotoxicity call [1],cytotoxicity call [2],growth inhibition call [3]
COc1ccc(NC(=O)N(C)C[C@H]2OCCCC[C@@H](C)Oc3ccc(NC(=O)c4ccccc4)cc3C(=O)N([C@@H](C)CO)C[C@H]2C)cc1,inactive,inactive,inactive
CCN1C[C@@H]2CN(C(=O)c3ccnn3C)C[C@H]2C1=O,inactive,inactive,inactive
C[C@@H]1CN([C@H](C)CO)C(=O)Cc2cc(NC(=O)Nc3ccc4c(c3)OCO4)ccc2O[C@H]1CN(C)Cc1ccc(-c2ccccc2)cc1,inactive,inactive,inactive
C[C@@H]1CN([C@@H](C)CO)S(=O)(=O)c2ccc(-c3cncnc3)cc2O[C@H]1CN(C)C(=O)Cc1ccncc1,inactive,inactive,inactive
COc1ccc(NC(=O)N(C)C[C@@H]2Oc3ccc(NS(=O)(=O)c4cn(C)cn4)cc3C(=O)N([C@H](C)CO)C[C@@H]2C)cc1,inactive,inactive,inactive
C[C@H]1CN([C@@H](C)CO)C(=O)c2cccc(NC(=O)Nc3ccccc3)c2O[C@@H]1CN(C)C(=O)Nc1ccc(C(F)(F)F)cc1,inactive,inactive,inactive
CN[C@@H]1[C@H](O[C@H]2[C@H](O[C@@H]3[C@@H](O)[C@H](O)[C@@H](NC(=N)N)[C@H](O)[C@H]3NC(=N)N)O[C@@H](C)[C@]2(O)CO)O[C@@H](CO)[C@H](O)[C@H]1O.CN[C@@H]1[C@H](O[C@H]2[C@H](O[C@@H]3[C@@H](O)[C@H](O)[C@@H](NC(=N)N)[C@H](O)[C@H]3NC(=N)N)O[C@@H](C)[C@]2(O)CO)O[C@@H](CO)[C@H](O)[C@H]1O,inactive,inactive,inactive
CO[C@H]1CN(C)C(=O)c2cc(NS(=O)(=O)CC(F)(F)F)ccc2OC[C@@H](C)N(Cc2ccccn2)C[C@@H]1C,inactive,inactive,inactive
C[C@@H]1CN([C@H](C)CO)C(=O)c2cc(C#Cc3ccccc3F)cnc2O[C@H]1CN(C)S(=O)(=O)c1ccccc1F,inactive,inactive,inactive
O=C(C[C@H]1C[C@@H]2c3cc(NC(=O)Nc4ccc(C(F)(F)F)cc4)ccc3O[C@@H]2[C@H](CO)O1)NC1CCCCC1,inactive,inactive,inactive
C[C@H]([C@@H](N)C(=O)N[C@H](C(=O)O)[C@H]1O[C@@H](n2ccc(O)cc2=O)[C@@H](O)[C@H]1O)[C@@H](C)c1ccc(O)cn1,inactive,inactive,inactive
COCC(=O)N1CC(=O)N2[C@H](CO)[C@@H](c3ccc(C#Cc4cccnc4)cc3)[C@@H]2C1,inactive,inactive,inactive
Cc1ccc(S(=O)(=O)Nc2ccc3c(c2)CC(=O)N([C@@H](C)CO)C[C@H](C)[C@H](CN(C)Cc2ccc(C(F)(F)F)cc2)O3)cc1,active,inactive,inactive
CN(C)CCCNC(=O)C[C@@H]1CC[C@H]2[C@@H](COC[C@@H](O)CN2C(=O)c2cc(Cl)cc(Cl)c2)O1,inactive,inactive,inactive
COCC#Cc1cnc2c(c1)C(=O)N([C@H](C)CO)C[C@@H](C)[C@@H](CN(C)S(=O)(=O)c1cn(C)cn1)O2,inactive,inactive,inactive
CC(C)NC(=O)N(C)C[C@@H]1Oc2c(NS(=O)(=O)c3cccs3)cccc2C(=O)N([C@@H](C)CO)C[C@H]1C,inactive,inactive,inactive
O=C(C[C@H]1CC[C@H]2[C@@H](COC[C@@H](O)CN2C(=O)Nc2ccc(F)cc2)O1)NCCCN1CCOCC1,inactive,inactive,inactive
C[C@H]1CN([C@@H](C)CO)C(=O)c2cc(NS(=O)(=O)c3cccs3)ccc2O[C@@H]1CN(C)Cc1ccc(Oc2ccccc2)cc1,inactive,inactive,inactive
O=C(C[C@H]1CC[C@H]2[C@@H](COC[C@@H](O)CN2C(=O)c2ccc(F)cc2)O1)NCCCN1CCOCC1,inactive,inactive,inactive
Cc1ccc(S(=O)(=O)N2C[C@@H](O)COC[C@@H]3O[C@H](CC(=O)NCCN4CCCCC4)CC[C@H]32)cc1,inactive,inactive,inactive
C[C@H]1CN([C@@H](C)CO)C(=O)c2c(c3ccccc3n2C)-c2ccccc2CO[C@@H]1CN(C)C(=O)Nc1cccc(F)c1,inactive,inactive,inactive
C[C@H]1CN([C@@H](C)CO)C(=O)CCCn2nncc2CO[C@H]1CN(C)S(=O)(=O)c1ccc2c(c1)OCCCO2,inactive,inactive,inactive
COc1ccc(S(=O)(=O)N(C)C[C@@H]2OCCCC[C@H](C)Oc3ccc(NC(=O)Nc4ccc(F)cc4)cc3C(=O)N([C@@H](C)CO)C[C@@H]2C)cc1,inactive,inactive,inactive
